In the supplement of paper PMC3334620:
The full ranking holds about 33,000 sequences; the median of “E-score (-0.5 to 0.5)” is about -0.012, and the highest 2% start at about 0.29. Some of the results follow.

The sequences below were run against T1, Ybr033w (UniProt P38073) (assay: PBM E-score (8-mer binding enrichment) (E-score (-0.5 to 0.5)); higher = stronger / more preferred TF binding; most listed sequences are background and not binding sites). Details: protein concentration: 200 nM; construct: GST-full length.
T1 sequence: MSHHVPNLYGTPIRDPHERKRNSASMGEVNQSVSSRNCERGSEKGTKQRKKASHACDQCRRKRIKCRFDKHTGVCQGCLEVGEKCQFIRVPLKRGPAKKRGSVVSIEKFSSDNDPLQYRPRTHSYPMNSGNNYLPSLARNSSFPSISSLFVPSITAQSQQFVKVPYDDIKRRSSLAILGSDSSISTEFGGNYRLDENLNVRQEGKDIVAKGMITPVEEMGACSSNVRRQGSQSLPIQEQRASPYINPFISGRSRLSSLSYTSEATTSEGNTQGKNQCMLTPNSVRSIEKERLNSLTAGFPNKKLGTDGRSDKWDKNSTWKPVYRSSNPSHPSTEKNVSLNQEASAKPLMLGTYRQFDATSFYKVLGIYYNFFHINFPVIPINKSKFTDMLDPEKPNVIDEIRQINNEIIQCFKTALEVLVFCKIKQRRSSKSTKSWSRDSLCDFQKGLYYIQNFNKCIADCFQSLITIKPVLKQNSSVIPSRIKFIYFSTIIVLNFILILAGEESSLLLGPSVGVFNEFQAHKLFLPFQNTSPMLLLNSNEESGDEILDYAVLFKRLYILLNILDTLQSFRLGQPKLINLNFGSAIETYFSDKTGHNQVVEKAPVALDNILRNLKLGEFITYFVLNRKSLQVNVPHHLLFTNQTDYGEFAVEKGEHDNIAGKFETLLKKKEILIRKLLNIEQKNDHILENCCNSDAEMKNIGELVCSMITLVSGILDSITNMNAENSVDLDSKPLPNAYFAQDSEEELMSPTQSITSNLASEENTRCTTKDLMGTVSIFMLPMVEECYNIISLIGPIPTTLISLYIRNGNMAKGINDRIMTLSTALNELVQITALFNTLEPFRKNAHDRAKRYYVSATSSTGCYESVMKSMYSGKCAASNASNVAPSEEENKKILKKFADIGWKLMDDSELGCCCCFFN
Procedure, shortened: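 Universal all-10-mer Agilent arrays, fresh or stripped once, were converted to double-stranded form by primer extension. GST-tagged yeast transcription factors from PURExpress in vitro transcription/translation, full-length or DNA-binding domain only, were applied at about 100-200 nM and detected with fluorescent anti-GST. After masliner normalisation, the Universal PBM Analysis Suite scored each ungapped eight-base word together with its reverse complement by E-score.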

Sequence	PBM E-score
AACGGCTG	-0.126
AAATTGGC	0.0475
CCATACAC	-0.0116
AAGCCACG	-0.181
AGCGCGAG	-0.116
GCACGTCA	-0.248
CCTACAAC	-0.00318
ATCACGTA	0.213
GCCACACC	-0.134
ATTTGTAG	0.00678
AGCCAACA	-0.0335
ATCTCAGG	-0.0536
AGAGCGAT	-0.0718
ACGCGTGC	-0.0228
AGGGTGGG	-0.0779
ACCAAAGC	0.0581
ATGATTTG	0.0992
CATGTTAG	0.117
AGCCGGCA	-0.169
AAGCGCCT	-0.28
GAGGGCCC	-0.324
CACTTTGA	-0.16

Sequence	PBM E-score
TAGGCATA	0.011
GCATTGGC	-0.124
GCAATGTA	0.0109
ACCCCTGC	-0.333
CGAATTTA	0.231
ATTGGATC	0.136
CGGGAGGC	-0.326
ACTAATCC	0.0658
TGGTACAA	0.0171
GCCTGCCC	-0.358
TATTATGA	0.0716
CTGAGTTA	-0.067
AACCGCGG	0.108
CACATCGA	-0.0875
AAGAACAT	0.273
CAAAGTTG	0.0403
GTCCGAGA	0.047
ATATTCGC	0.134
AAGGGGAT	-0.0478
AACTCACT	-0.0239
TCCCCGCA	-0.168
CGGCTAGC	-0.14

Sequence	PBM E-score
AGTCTTGG	-0.0411
CATTGGCA	-0.0993
GGCCAAAC	-0.248
TCATGCAA	0.149
CTGAATAC	0.173
AAGTCGAT	-0.0156
AAATCTCC	-0.215
CAGAAAAG	0.0452
CAGATAGG	-0.0619
AGCGATAC	0.0186
AACTGTTC	0.142
GAAATCGC	0.00105
ACGCGCAG	-0.221
CCCCCTAG	-0.387
CAATTCGG	0.0708
CTGGAGAA	-0.115
ACTCATCT	0.0382
GATACCCC	-0.158
AATCCAGC	0.0372
CCTATGTC	-0.0437
CCACACTA	0.196
AGCCCCAA	-0.21

Sequence	PBM E-score
AAGGTATT	0.152
CCCATGAC	-0.111
CAATAGTC	-0.065
ACCGGATA	0.0698
AAAACGTT	0.0685
CCTCAAGC	-0.194
GTGGACTA	0.00735
GGCAGGCA	-0.228
CAAATAAA	0.2
ACGCGCCT	-0.00355
GTGCGGGA	-0.13
AAGCGGTG	-0.194
AGTGCGCG	-0.148
GTGATCAA	0.056
ATGTTACC	0.102
CTAATGAG	0.114
ATAGCACG	-0.202
CCGCACGA	-0.0691
AAGCACTT	0.0407
AGAGCCAC	0.0666
